Results: PubChem BioAssay AID445 (National Center for Advancing Translational Sciences (NCATS), 2006)
The campaign covered roughly 110,000 compounds. About 40 (0.04%) were called active. Inconclusive results, whose numbers are uncertain, are shown with a selection of clear calls. The call rests on the fitted dose curve; in most records, active means well fitted curve in the direction sought with a large enough effect in the signal ratio (not every such curve was filed as active); inconclusive means small, poorly fitted or top-dose-only effect, or a change in a side signal; inactive means flat fitted curve, though single readings scatter; the % refers to the signal ratio. Potencies beside an inconclusive call are fits to weak or partial responses and may not hold up.
Potency means the concentration at half of the fitted maximal effect.

Experiment: IkB Signaling;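 on IkBa stabilization activation: 0% = basal untreated cells and 100% = reference inhibitor full response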
Conditions: ABC-DLBCL IkBa-CBG/CBR dual luciferase ratio (green luciferase fused to IkBa over red control in OCI-Ly3 lymphoma cells), 4 h; IkBa stabilization activation: at 57.1 µM (top of the series), scaled: untreated 0%, proteasome inhibitor 100% unless noted
Summary of the method: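 Curves were fitted separately to fusion (green), unfused (red) and ratio luminescence, then classed by r2, magnitude and activity. Cells: OCI-Ly3, 4 h compound plus doxycycline at 37C; 10 uM MG-132 defined full response.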
For `COc1cccc(CNC(=O)CCC(=O)N2CC3CCCN3c3ccccc32)c1` (stereo not drawn), the “IkBa stabilization activation” value was inactive: 1.48%.
For `Cc1ccccc1NC(=O)CSc1nnc(-c2ccoc2C)n1CCc1ccccc1`, the IkBa stabilization activation was inconclusive: 3.58% [signal inhibitor].
In the case of `Cc1ccc(C(=O)N2CCN(c3ccccc3F)CC2)cc1NC(=O)c1nsc2ccccc12`, the IkBa stabilization activation is reported as inconclusive: -0.6% [signal inhibitor].
With `CN(c1ccccc1C(=O)Nc1ccc2c(c1)OCO2)S(C)(=O)=O` the “IkBa stabilization activation” value was inactive: 4.01%.
With `COc1cccc(CNc2nc3nc(C)c(Cl)c(C)n3n2)c1` the Potency was inconclusive: 6.31 µM [signal inhibitor, partial curve].
In the case of `COc1cc(C(=O)Nc2ccc(-c3cc(C(F)(F)F)nn3-c3ccccc3)cc2)cc(OC)c1OC`, the “IkBa stabilization activation” value is reported as inactive: 0.00176%.
With `Cc1nnc2sc(-c3ccncc3)nn12` the “IkBa stabilization activation” value was inactive: 0.841%.
With `CCn1cnc2c1c(=O)n(Cc1csc(-c3ccccc3)n1)c(=O)n2Cc1ccccc1` the IkBa stabilization activation was inconclusive: 3.49% [signal inhibitor].
With `CCOC(=O)c1c(-c2cccs2)csc1NC(=O)c1ccco1` the “IkBa stabilization activation” value was inactive: -0.533%.
For `Cc1cccc(NC(=O)Cn2nc(N3CCN(c4ccccc4)CC3)ccc2=O)c1C`, the “IkBa stabilization activation” value was inactive: 1.72%.
With `CCOc1ccc(CCNC(=O)Cn2nc(C)c3c(C)n(-c4ccccc4)nc3c2=O)cc1OCC` the IkBa stabilization activation was inconclusive: 0.447% [signal inhibitor].
For `CCOC(=O)c1c(C)sc(-c2c(-c3cc(C)ccc3C)[nH]c3c2c(=O)[nH]c(=O)n3C)c1O`, the IkBa stabilization activation was inconclusive: -0.0147% [signal inhibitor].
For `Cc1cc(C)nc(SCC(=O)Nc2ccc(N3CCOCC3)c(Cl)c2)n1`, the IkBa stabilization activation was inconclusive: 2.9% [signal inhibitor].
With `CC(C)c1ccc(S(=O)(=O)N2CCN(CCC(=O)Nc3ccc(N(C)C)cc3)CC2)cc1` the IkBa stabilization activation was inconclusive: 3.02% [signal inhibitor].
In the case of `CCn1cc2nc(SCc3cccc(OC)c3)n(Cc3ccc(Cl)cc3)c(=O)c2n1`, the IkBa stabilization activation is reported as inconclusive: 7.31% [signal inhibitor].
With `CCCCn1nnnc1NCc1cccnc1` the “IkBa stabilization activation” value was inactive: -1.26%.
For `COC(=O)c1ccc(OCC(O)CN2CCC(C)CC2)cc1` (stereo not drawn), the “IkBa stabilization activation” value was inactive: -0.0231%.
In the case of `COc1ccccc1NC(=O)c1cc(C(=O)O)ccc1C(=O)O`, the Potency is reported as inconclusive: 25.1 µM [signal inhibitor, partial curve].
With `COc1ccc(OC)c(CCNC(=O)Cn2sc3nc(C)cc(C)c3c2=O)c1` the Potency was inconclusive: 5.01 µM [signal inhibitor, single point].
For `CC1=C(C(=O)Nc2ccccc2Cl)C(c2cccs2)n2ncnc2N1` (stereo not drawn), the IkBa stabilization activation was inconclusive: 1.2% [signal inhibitor].
For `O=S(=O)(NCc1ccccc1)c1ccc2[nH]c3c(c2c1)CCCCC3`, the “IkBa stabilization activation” value was inactive: -2.87%.
For `COc1cccc(NS(=O)(=O)c2ccc3[nH]cc(C(=O)NC4CCCCC4)c(=O)c3c2)c1`, the IkBa stabilization activation was inconclusive: -4.47% [signal inhibitor].
In the case of `COc1ccc(N2C(=O)C(CC(=O)Nc3ccc(F)cc3)N(CCC3=CCCCC3)C2=O)cc1` (stereo not drawn), the IkBa stabilization activation is reported as inconclusive: 3.99% [signal inhibitor].
With `O=C(NC1CC(=O)N(c2cccc(F)c2)C1)C1CCCCC1` (stereo not drawn) the IkBa stabilization activation was inconclusive: 2.02% [signal inhibitor].
In the case of `COc1cc(CNC(=O)CCCCCCC(C)C)ccc1O`, the IkBa stabilization activation is reported as “inactive”.
With `CCc1c(C#N)c(N)nc(SCC(=O)OCc2ccccc2)c1C#N` the “IkBa stabilization activation” value was inactive: 3.22%.
In the case of `COc1ccc(Cl)cc1NC(=O)CN1c2ccccc2S(=O)(=O)c2ccccc21`, the IkBa stabilization activation is reported as inconclusive: -0.129% [signal inhibitor].
For `O=C(CSC1=Nc2ccccc2N=C(c2ccc(F)cc2)C1)Nc1cc(F)ccc1F`, the IkBa stabilization activation was inconclusive: 3.17% [signal inhibitor].
In the case of `COc1ccccc1CCNC(=O)c1cc2ccccn2n1`, the Potency is reported as inconclusive: 25.1 µM [signal inhibitor, single point].
For `COCCCNC(=O)c1c(NC(=O)c2cc(=O)c3cc(C)c(C)cc3o2)sc2c1CCCC2`, the “IkBa stabilization activation” value was inactive: -1.3%.
In the case of `CCCCNc1cc(NC2CCCCC2)c2c3c(onc13)-c1ccccc1C2=O`, the “IkBa stabilization activation” value is reported as inactive: 3.92%.
In the case of `COc1ccc(CNC(=O)C2COc3ccccc3O2)c(OC)c1` (stereo not drawn), the IkBa stabilization activation is reported as inconclusive: 5.94% [signal inhibitor].
With `CCc1nc2ccccc2n1CCCCOc1ccc(Cl)cc1` the “IkBa stabilization activation” value was inactive: 0.273%.
For `CCOC(=O)C1=C(N)OC2=C(C(=O)CC(C)(C)C2)C1c1cccnc1` (stereo not drawn), the “IkBa stabilization activation” value was inactive: -0.359%.
For `CCOc1ccccc1CNC(=O)CCCn1nc(C)c2sc3ccccc3c2c1=O`, the IkBa stabilization activation was inconclusive: -0.323% [signal inhibitor].
For `CC1=C(C(=O)Nc2cccc(Cl)c2)C2(CCCCCC2)OC1=O`, the “IkBa stabilization activation” value was inactive: 0.525%.
In the case of `COc1ccc(-c2cc3nc(C)cc(NCCO)n3n2)cc1`, the “IkBa stabilization activation” value is reported as inactive: 0.561%.
For `COc1cc(NC(=O)Cn2nc(C(F)(F)F)c3c2CCCC3)cc(OC)c1OC`, the IkBa stabilization activation was inconclusive: 7.09% [signal inhibitor].
